Measured values from the supplement of paper PMC3334620.
The full ranking holds about 33,000 sequences; the median of “E-score (-0.5 to 0.5)” is about -0.056, and the highest 2% start at about 0.38. The list shows a part of the results.

target: Stb4 (UniProt P50104); assay: PBM E-score (8-mer binding enrichment) (E-score (-0.5 to 0.5)); higher = stronger / more preferred TF binding; most listed sequences are background and not binding sites; conditions: protein concentration: 200 nM; construct: GST-DNA-binding domain
Method: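 Universal 'all 10-mer' protein binding microarrays (Agilent AMADID 015681) probed with GST-tagged S. cerevisiae TFs (full-length or DBD) made by in vitro transcription/translation (PURExpress), about 100-200 nM. Bound TF was detected with fluorescent anti-GST. Each ungapped 8-mer (which stands for itself and its reverse complement) is scored by the PBM enrichment score (E-score), a modified Wilcoxon-Mann-Whitney statistic from -0.5 to +0.5, computed with the Universal PBM Analysis Suite. Scale: above 0.35 generally sequence-specific binding.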

Sequence | PBM E-score
TACCCATA | -0.224
ATGCTGGA | -0.174
AGACAAAA | -0.26
CACCGCAA | 0.0924
GCTCCTCC | -0.252
GCACTCGC | -0.0313
AAGTGACA | -0.0376
GCAGCGGA | 0.193
AATCTCAA | 0.123
ACTTAGCA | -0.066
CCACCTCA | -0.0243
GGTGTTAC | 0.0515
AACACGAC | -0.207
GAGCTTCC | 0.188
AACATGGA | -0.133
GACCTGGC | -0.0471
GGGATAGA | -0.0799
GATGTGCC | 0.102
AAGAAGAC | -0.122
GGACCGAC | 0.276
CACAGTGG | -0.0386
CAGAATTC | -0.101

Sequence | PBM E-score
CCCGATCA | 0.268
AACCCACA | -0.127
AGATAGCC | 0.0814
CCCGACGC | 0.318
ATCTTCTG | 0.0164
CGCAGACC | -0.116
CGGCCCTC | -0.00371
GGGATCAC | -0.0541
AGTAACGG | 0.103
CCGATAGC | 0.28
AGGAGTAT | -0.156
CAAGGGGC | 0.00314
TAATGACA | -0.00582
ACATCCGA | 0.486
ACACAATG | -0.128
AAGACGCG | -0.0136
CGGTTCTC | 0.174
CCGCTACG | 0.0467
GAGGCACC | -0.0156
ACCTGTTG | -0.194
ATATTCAC | -0.141
GGCGTACA | -0.157

Sequence | PBM E-score
ACGACTTC | -0.0604
CCACGTCC | -0.161
CACTTATC | -0.114
CTGGGCAA | -0.228
ACTGGTAG | -0.226
CAATTTAA | -0.105
AAAATAGC | -0.0271
ACTTTTTC | -0.0229
CAGCCTCA | -0.157
CGATCGCG | 0.134
CGTGTTGC | 0.0451
AGTAACTG | -0.176
AGCAAACT | -0.0478
ACGGACAA | 0.058
CATTCCCC | 0.119
ACCATGTC | -0.0118
CGGTTTTA | 0.197
CTGCTATA | 0.0268
GCGTGACA | -0.0588
CCTAAGCA | -0.165
GAAATGCA | -0.0344
GCGCTGCC | -0.146

Sequence | PBM E-score
CAATCGAG | -0.232
CCGAATTC | 0.398
GGTAATTA | 0.26
GACATGAC | -0.149
CGACGGCA | 0.182
AAGCTCTA | -0.166
ATCACGGG | 0.0959
CGCTGGAA | 0.0444
GGAAGTAA | 0.258
CGCGCTGA | -0.108
AGCAGTCC | -0.137
GACATTCA | 0.052
TTACTGAA | -0.122
GTACACGA | -0.0694
CCGTATGA | 0.0582
ATAGATAC | 0.0388
CAAAAGGG | -0.267
TCTGCTCA | -0.299
GAAAAGAC | 0.0366
CGCCTTAC | -0.0919
